# Measured values from PubChem BioAssay AID588579 (National Center for Advancing Translational Sciences (NCATS), 2011).
# Where “and” joins values, the source holds several entries; their conditions need not be identical. Equal entries are not always repeated. Hit rate of the full screen: of about 400,000 compounds, about 2,200 (0.55%) were called active. The inconclusive results got no clear call from the source; some entries with a clear call stand among them for comparison. Calls come from the whole dose curve; as a rule, active = well fitted inhibition curve with a large enough effect; inconclusive = small, poorly fitted or top-dose-only effect, or another doubt; inactive = no such curve, though single readings can be large or run the other way. Potencies beside an inconclusive call are fits to weak or partial responses and may not hold up.
# Biological target: DNA polymerase kappa (Homo sapiens) (UniProt Q9UBT6)
# Sequence of UniProt Q9UBT6 (Q9UBT6 whole entry, looked up): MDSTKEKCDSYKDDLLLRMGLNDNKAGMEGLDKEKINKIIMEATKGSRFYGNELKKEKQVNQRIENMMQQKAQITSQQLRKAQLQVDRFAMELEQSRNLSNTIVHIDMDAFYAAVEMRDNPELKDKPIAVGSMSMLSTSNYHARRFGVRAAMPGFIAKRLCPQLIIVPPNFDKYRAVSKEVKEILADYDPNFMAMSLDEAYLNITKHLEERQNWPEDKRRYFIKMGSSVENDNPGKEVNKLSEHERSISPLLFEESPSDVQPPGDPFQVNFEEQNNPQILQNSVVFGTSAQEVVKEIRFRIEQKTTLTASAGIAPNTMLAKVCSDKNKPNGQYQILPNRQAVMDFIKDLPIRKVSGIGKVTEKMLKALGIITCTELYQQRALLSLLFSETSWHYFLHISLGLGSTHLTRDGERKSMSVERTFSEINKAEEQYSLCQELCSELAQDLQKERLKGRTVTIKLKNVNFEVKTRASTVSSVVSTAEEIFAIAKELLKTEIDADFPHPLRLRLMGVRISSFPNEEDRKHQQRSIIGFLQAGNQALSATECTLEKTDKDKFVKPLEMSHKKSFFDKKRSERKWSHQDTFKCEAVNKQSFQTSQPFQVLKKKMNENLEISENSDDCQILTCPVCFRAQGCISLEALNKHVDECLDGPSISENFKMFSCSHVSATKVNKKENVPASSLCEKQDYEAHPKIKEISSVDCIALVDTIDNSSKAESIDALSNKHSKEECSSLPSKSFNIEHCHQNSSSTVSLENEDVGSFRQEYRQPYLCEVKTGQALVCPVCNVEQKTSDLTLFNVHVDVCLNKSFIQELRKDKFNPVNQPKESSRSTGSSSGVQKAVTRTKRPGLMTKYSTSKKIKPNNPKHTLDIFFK
# Assay: qHTS for Inhibitors of Polymerase Kappa
# Settings: purified Pol kappa, fluorescent DNA synthesis assay, 10 min; series mostly up to 107 µM; activity, negative = inhibition: at the top concentration
# Summary of the method: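 Fluorescent qHTS in 1536-well format: enzyme (10 nM) and compound sat 15 min at room temperature before 50 nM substrate (final) was added. Signal taken at 0 and 10 min; no-enzyme buffer wells were negative controls.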
# % is set by controls: 0 for no effect and ±100 for the full control effect; potency is the fitted concentration of half-maximal effect; tags give direction and shape of the fitted curve.
Compound,Potency,"activity, negative = inhibition"
COc1ccc(-c2ccc(CO)o2)cc1N,"inconclusive: 79.4 µM [inhibitor, partial curve, poor fit]",–
O=C(CSc1cc(Cl)ccc1Cl)NC1CCCC1,–,inactive: -1.87%
CCC(=O)n1nc(-c2cccnc2)nc1NCc1ccccc1,"inconclusive: 100 µM [inhibitor, partial curve, poor fit]",–
CCN1C(=O)N/C(=C/c2ccc(C)o2)C1=O,–,inactive: 3.95% [at 60.1 µM]
O=C(CSc1nnc(-c2ccc(S(=O)(=O)N3CCCC3)cc2)o1)NCc1ccco1,"inconclusive: 79.4 µM [inhibitor, single point]",–
COc1ccc(C(=O)NNC(=O)Cc2coc3cc(OC)ccc23)cc1,"inconclusive: 100 µM [inhibitor, single point]",–
COc1cc(/C=N/NC(N)=O)cc([N+](=O)[O-])c1O,"inconclusive: 79.4 µM [inhibitor, partial curve]",–
CC(C)(C)N(NC(=O)OCc1ccccc1)C(=O)c1ccccc1Cl,"inconclusive: 100 µM [inhibitor, partial curve, poor fit]",–
OC[C@@H]1[C@@H](c2ccc(Cl)cc2)C(c2ccccc2)=NN1c1ccccc1,"inconclusive: 0.0316 µM [inhibitor, full curve, poor fit]",–
Cc1cccc(/N=C/c2c(O)cc(C)oc2=O)n1,"inconclusive: 89.1 µM [inhibitor, single point]",–
Cc1cc(C)c(NC(=O)CN(c2ccccc2)S(=O)(=O)N(C)C)c(C)c1,"inconclusive: 89.1 µM [inhibitor, partial curve, poor fit]",–
Cc1ccc(OCC(=O)Nc2nnc(S(=O)(=O)N3CCC(C)CC3)s2)cc1,"inconclusive: 79.4 µM [inhibitor, partial curve]",–
COc1ccc2nc(Cl)cc(Cl)c2c1,–,inactive: -4.15%
O=C(CSc1n[nH]c(-c2ccccc2)n1)NC(=O)NCc1ccco1,"inconclusive: 79.4 µM [inhibitor, single point]",–
COc1ccc(OC)c(S(=O)(=O)NCCc2sc(C)nc2C)c1,–,inactive: -7.65% [at 60.1 µM]
COc1ccccc1NC(=O)C(=N\O)/C(C)=N/O,"inconclusive: 89.1 µM [inhibitor, single point]",–
CN(Cc1ccccc1)C(=O)c1c[nH]c2ccc(S(=O)(=O)Nc3ccccc3F)cc2c1=O,"inconclusive: 89.1 µM [inhibitor, partial curve, poor fit]",–
O=C(COC(=O)c1cc(-c2cccs2)nc2ccccc12)NCc1ccco1,active: 89.1 µM,–
COc1ccc(C(=O)NC(=S)NNC(=O)c2ccccc2O)cc1,"inconclusive: 100 µM [inhibitor, single point]",–
Oc1cccc(CN2CCOCC2)c1O,active: 28.2 µM,–
CC(=O)NN1C(=O)/C(=C/c2ccc(Br)o2)SC1=S,active: 7.94 µM,–
COc1ccccc1CN(Cc1cc2cc3c(cc2[nH]c1=O)OCCO3)Cc1nnnn1Cc1ccco1,"inconclusive: 39.8 µM [inhibitor, partial curve]",–

Compound,Potency,"activity, negative = inhibition"
Cc1nc(-c2ccc(Cl)cc2)sc1CCNC(=O)C(=O)Nc1ccccc1C#N,–,inactive: -3.15% [at 60.1 µM]
O=C(NNC(=O)c1ccc(Br)s1)NC1CCCCC1,–,inactive: -16.4%
O=C1/C(=C\c2ccc(O)cc2)SC(=S)N1Cc1ccccc1,–,inactive: -26.5%
CN1CCN(CC/C=C2/c3ccccc3Sc3ccc(S(=O)(=O)N(C)C)cc32)CC1,"inconclusive: 89.1 µM [inhibitor, partial curve, poor fit]",–
CCCCCCCCCCCCCCCCCCNc1ccn(C2OC(COP(=O)(O)OCC3OC(n4cc(F)c(=O)[nH]c4=O)CC3O)C(O)C2O)c(=O)n1 (centres undefined),active: 44.7 µM,–
O=C(CSc1nc2ccccc2c(=O)n1Cc1ccco1)NCc1ccco1,"inconclusive: 100 µM [inhibitor, single point]",–
CCc1cccc(CC)c1NC(=O)CCS(=O)(=O)c1ccc(Br)cc1,–,inactive: -10.5%
O=C(Cc1cccs1)Nc1nnc(SCc2cccc3ccccc23)s1,active: 50.1 µM,–
O=C(O)/C=C/C(=O)Nc1ccc(OC(F)(F)F)cc1Br,–,inactive: 1.75%
CS(=O)(=O)Nc1cccc(-c2cn3c(n2)SCC3)c1,active: 31.6 µM,–
Cc1cc2c(n1-c1ccc(C(=O)NCC(C)c3ccccc3)cc1)CCCC2 (centres undefined),–,inactive: 0.0257%
Cc1sc(C2C(C#N)=C(N)N(c3cccc(Cl)c3)C3=C2C(=O)CCC3)cc1CN1CCOCC1 (centres undefined),"inconclusive: 89.1 µM [inhibitor, partial curve, poor fit]",–
O=[n+]1c2c(n([O-])c3cc(F)c(N4CCCC4)cc31)CCC2,"inconclusive: 89.1 µM [inhibitor, partial curve]",–
COc1ccc(OC)c(CN2CCN(C(=O)c3cc(S(=O)(=O)N4CCOCC4)ccc3C)CC2)c1,–,inactive: 2.46%
CC(=O)Nc1ccc(S(=O)(=O)N2CCN(c3cc4c(cc3[N+](=O)[O-])n(C)c(=O)n4C)CC2)cc1,–,inactive: -10%
CCOc1cccc(C(=O)Nc2ccc3oc(-c4ccc(C(C)(C)C)cc4)nc3c2)c1,"inconclusive: 89.1 µM [inhibitor, single point]",–
O=S(=O)(O)c1cc(O)c2c(O)c(N=Nc3cc(Cl)ccc3O)c(S(=O)(=O)O)cc2c1,active: 15.8 µM,–
O=C(O)c1cccc(NC(=O)c2ccc(N3C(=O)c4ccc(C(=O)Nc5cccc(C(=O)O)c5)cc4C3=O)cc2)c1,–,inactive: -13.5%
CC(C)(CO)[C@@H](O)C(=O)NCCC(=O)NCCSSCCNC(=O)CCNC(=O)[C@H](O)C(C)(C)CO,–,inactive: -3.13% [at 19.4 µM]
Cc1cc(/C=C2\SC(=S)NC2=O)c(C)n1C1CC1,"inconclusive: 100 µM [inhibitor, single point]",–
COc1ccc2c(c1OC)C(Cc1ccccc1)N1CCc3cc4c(cc3C1=C2)OCO4 (centres undefined),"inconclusive: 8.91 µM [inhibitor, partial curve, poor fit]",–
Cc1cc(-c2ccc(N=Nc3ccc4c(S(=O)(=O)O)cc(S(=O)(=O)O)c(N)c4c3O)c(C)c2)ccc1N=Nc1ccc2c(S(=O)(=O)O)cc(S(=O)(=O)O)c(N)c2c1O,active: 447 nM and active: 1.26 µM,–
